Data from the supplement of paper PMC10338343.
± gives the standard deviation. This is a selection; strong and weak results do not stand in their true shares.

System: MIWI (PIWIL1) piRISC loaded with L1MC piRNA (30 nt)
Assay: pre-steady-state target cleavage rate (min^-1); MIWI and MILI are mouse PIWI proteins and EfPiwi is from a freshwater sponge; tags in brackets are library labels; higher = faster piRNA-guided slicing of the target
Settings: guide: L1MC piRNA 5'p-UAACUAAAUACUAUGCAAGCUGUAGGUCCU
How it was run: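 In this Cleave-'n-Seq assay, uncleaved targets were sequenced and normalised to depth and to weakly complementary targets. They came from a transcribed, DNA-blocked target RNA library […] mixed with 1 nM active affinity-purified piRISC carrying one synthetic guide, with or without 500 nM GTSF1 partner protein, in HEPES–potassium acetate buffer at 33 °C for 0–8 or 0–960 min. After three trials were pooled and k3 was capped at 0.0001 min^-1, the pre-steady-state cleavage rate was obtained from a burst-and-steady-state fit.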

[1] = auxiliary factor: 500 nM mouse GTSF1
[2] = auxiliary factor: none (no GTSF1)
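Further: 1 nM active piRISC with 0.1 nM target library at 33 °C single turnover.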

## UCGACCUACAGCUUGCAUAGAAUUUAGAAA
[1]
  pre-steady-state target cleavage rate: 0.369 ± 0.048
[2]
  pre-steady-state target cleavage rate: 0.00627 ± 0.0024

## UCCUGCUACAGCUUGGAUAGAAUUUAGUUA
[1]
  pre-steady-state target cleavage rate: 0.356 ± 0.046
[2]
  pre-steady-state target cleavage rate: 0.0126 ± 0.0037

## AGGACCUACAGCAAGCAUAGUAUUUAGUAA
[1]
  pre-steady-state target cleavage rate: 0.883 ± 0.086
[2]
  pre-steady-state target cleavage rate: 0.00672 ± 0.0039

## UCCUCCUACUGCUUGCAUAGUAUUUAGAUA
[1]
  pre-steady-state target cleavage rate: 0.185 ± 0.024
[2]
  pre-steady-state target cleavage rate: 0.0115 ± 0.002

## UCCUGGUACAGCAUGCAUACUAUUUAGUUA
[1]
  pre-steady-state target cleavage rate: 0.335 ± 0.051
[2]
  pre-steady-state target cleavage rate: 0.0183 ± 0.0033

## UCCUCCUACAGCUUGCUUAGUAUUUAGUAA
[1]
  pre-steady-state target cleavage rate: 0.561 ± 0.037
[2]
  pre-steady-state target cleavage rate: 0.0111 ± 0.0028

## UCCUGGUACAGCUUGCAUAGAAUUUAGAUA
[1]
  pre-steady-state target cleavage rate: 0.0786 ± 0.026
[2]
  pre-steady-state target cleavage rate: 0.00495 ± 0.0029

## UCCUGGUACAGCUUGCAAUCUAUUUAGUUA
[1]
  pre-steady-state target cleavage rate: 0.0647 ± 0.015
[2]
  pre-steady-state target cleavage rate: 0.00352 ± 0.0029

## UCCUGGAUCAGCUUGCAUAGUAUUUUCUAA
[1]
  pre-steady-state target cleavage rate: 0.227 ± 0.044
[2]
  pre-steady-state target cleavage rate: 0.00504 ± 0.0029

## UCCUGGAUGUCCUUGCAUAGUCAUUUAGUUA
[1]
  pre-steady-state target cleavage rate: 0.00612 ± 0.004
[2]
  pre-steady-state target cleavage rate: 0.00388 ± 0.0036

## UCCUGGAACAGCUUGGCAUAGUAUUUAGUUA
[1]
  pre-steady-state target cleavage rate: 0.998 ± 0.22
[2]
  pre-steady-state target cleavage rate: 0.0177 ± 0.0048

## UCCUGGAACAUCUUGCAUAGUAUUUAGUUA
[1]
  pre-steady-state target cleavage rate: 1.07 ± 0.046
[2]
  pre-steady-state target cleavage rate: 0.0385 ± 0.0067

## UGGACCUUCAGCUUGCAUAGUAUUUACAAA
[1]
  pre-steady-state target cleavage rate: 0.286 ± 0.035
[2]
  pre-steady-state target cleavage rate: 0.00849 ± 0.0031

## UCCUGGUACAGCUUGCAUAGUUUUUAGAAA
[1]
  pre-steady-state target cleavage rate: 0.0899 ± 0.033
[2]
  pre-steady-state target cleavage rate: 0.00569 ± 0.0025

## UCCUGGAUGAGCUUGCAUAGAAUUAAGUUA
[1]
  pre-steady-state target cleavage rate: 0.0363 ± 0.0098
[2]
  pre-steady-state target cleavage rate: 0.00457 ± 0.0032

## UCCUGGUACACCUUGCAUAGUAUUUUGUUA
[1]
  pre-steady-state target cleavage rate: 0.436 ± 0.1
[2]
  pre-steady-state target cleavage rate: 0.00901 ± 0.0027

## UCCUCCUACAGCUUGCACAGUAUUUAGUUA
[1]
  pre-steady-state target cleavage rate: 1.04 ± 0.031
[2]
  pre-steady-state target cleavage rate: 0.0541 ± 0.0096

## AGGACCUACAGCUUGCAUAGUCUUUAGUUA
[1]
  pre-steady-state target cleavage rate: 0.781 ± 0.063
[2]
  pre-steady-state target cleavage rate: 0.0545 ± 0.011

## UCCUGGUACAGCUUGCAAAGUAUUUACUUA
[1]
  pre-steady-state target cleavage rate: 0.161 ± 0.033
[2]
  pre-steady-state target cleavage rate: 0.0201 ± 0.0047

## UCCUGGAUGAGCUUGCAUAGUAAUUUGUUA
[1]
  pre-steady-state target cleavage rate: 0.184 ± 0.042
[2]
  pre-steady-state target cleavage rate: 0.0103 ± 0.0031

## AGGACCUACAGCUUGCAUUGUAUUAAGUUA
[1]
  pre-steady-state target cleavage rate: 0.455 ± 0.041
[2]
  pre-steady-state target cleavage rate: 0.0136 ± 0.0037

## UCCUCCUUCAGCUUGCAUAGUAUUUAGAUA
[1]
  pre-steady-state target cleavage rate: 0.392 ± 0.034
[2]
  pre-steady-state target cleavage rate: 0.0153 ± 0.0027

## UGGACCUACAGCUUGAAUAGUAUUUAGUUA
[1]
  pre-steady-state target cleavage rate: 1.63 ± 0.08
[2]
  pre-steady-state target cleavage rate: 0.0423 ± 0.0078

## AGGACCUACAGCUUGCAUUCUAUUUAGUUA
[1]
  pre-steady-state target cleavage rate: 0.372 ± 0.028
[2]
  pre-steady-state target cleavage rate: 0.0121 ± 0.0035

## UCGACGAACAGCUUGCAUAGUAUUUAGAAA
[1]
  pre-steady-state target cleavage rate: 0.553 ± 0.048
[2]
  pre-steady-state target cleavage rate: 0.00889 ± 0.0029

## UCCUGGUUCAGCUUGCAUUGUAUUUAGUUA
[1]
  pre-steady-state target cleavage rate: 0.61 ± 0.028
[2]
  pre-steady-state target cleavage rate: 0.0343 ± 0.01

## UCCUGGAUGUGCUUGGAUAGUUUUUAGUUA
[1]
  pre-steady-state target cleavage rate: 0.016 ± 0.0062
[2]
  pre-steady-state target cleavage rate: 0.00996 ± 0.0031

## UCCACCUACUCGUUGCAUAGUAUUUAGUAA
[1]
  pre-steady-state target cleavage rate: 0.406 ± 0.031
[2]
  pre-steady-state target cleavage rate: 0.00745 ± 0.0019

## AGGACCUACUGCUUGCAUAGAAUUUAGUUA
[1]
  pre-steady-state target cleavage rate: 0.426 ± 0.025
[2]
  pre-steady-state target cleavage rate: 0.02 ± 0.0049

## UCCUGCUACAGCUUGCAUAGUAUUUAGUAA
[1]
  pre-steady-state target cleavage rate: 0.435 ± 0.041
[2]
  pre-steady-state target cleavage rate: 0.0184 ± 0.0032

## AGGACCUACAGCUUGCAAAGUAAUUAGUUA
[1]
  pre-steady-state target cleavage rate: 0.681 ± 0.049
[2]
  pre-steady-state target cleavage rate: 0.0124 ± 0.0036

## AGGACCUACUGCUAGCAUAGUAUUUAGUUA
[1]
  pre-steady-state target cleavage rate: 1.17 ± 0.068
[2]
  pre-steady-state target cleavage rate: 0.0412 ± 0.0075

## UGGACCUAGAGCUUGCAUAGUAUAUAGUUA
[1]
  pre-steady-state target cleavage rate: 0.529 ± 0.045
[2]
  pre-steady-state target cleavage rate: 0.0301 ± 0.0071

## AGGACCUACAGCUUGCAUAGAAUUUUGUUA
[1]
  pre-steady-state target cleavage rate: 0.501 ± 0.047
[2]
  pre-steady-state target cleavage rate: 0.0183 ± 0.0047

## UCCACCUACAGCUUGCUUAGUAAUUAGUUA
[1]
  pre-steady-state target cleavage rate: 0.605 ± 0.029
[2]
  pre-steady-state target cleavage rate: 0.0116 ± 0.0032

## UCCUGGAACUGCUUGCAUAGUAUUUAGAAA
[1]
  pre-steady-state target cleavage rate: 0.179 ± 0.025
[2]
  pre-steady-state target cleavage rate: 0.00529 ± 0.0023

## AGGACCAUCAGCUUGCAUAGUAUUUAGUAA
[1]
  pre-steady-state target cleavage rate: 0.911 ± 0.057
[2]
  pre-steady-state target cleavage rate: 0.0576 ± 0.012

## UCCUGGUUGAGCUUGCAUAGUAUUUACAAA
[1]
  pre-steady-state target cleavage rate: 0.0391 ± 0.012
[2]
  pre-steady-state target cleavage rate: 0.00408 ± 0.0037

## UCCUCGUACAGCUUGGAUAGUAUUUAGUUA
[1]
  pre-steady-state target cleavage rate: 1.22 ± 0.062
[2]
  pre-steady-state target cleavage rate: 0.0636 ± 0.011

## UCCACCAUCAGCUUGCAUAGUAUUUAGUAA
[1]
  pre-steady-state target cleavage rate: 0.68 ± 0.029
[2]
  pre-steady-state target cleavage rate: 0.0248 ± 0.0047

## UCCUGGAUGAGCUUGCAUAGUAUUUAAGUUA
[1]
  pre-steady-state target cleavage rate: 0.505 ± 0.049
[2]
  pre-steady-state target cleavage rate: 0.0339 ± 0.012

## UCCUCGAACAGCUUGCAUAGUAUUUACAAA
[1]
  pre-steady-state target cleavage rate: 0.356 ± 0.042
[2]
  pre-steady-state target cleavage rate: 0.00537 ± 0.0025

## AGGACCAACAGCUUGCAUAGUAUUUACAAA
[1]
  pre-steady-state target cleavage rate: 0.454 ± 0.065
[2]
  pre-steady-state target cleavage rate: 0.0105 ± 0.0038

## UCGUGGUACAGCUUGCAUAGUAUUUAGAAA
[1]
  pre-steady-state target cleavage rate: 0.305 ± 0.029
[2]
  pre-steady-state target cleavage rate: 0.00755 ± 0.0023

## UCCUCCUACAGCUUGCUUAGUAUUUUGUUA
[1]
  pre-steady-state target cleavage rate: 0.663 ± 0.035
[2]
  pre-steady-state target cleavage rate: 0.0126 ± 0.0024

## UGGACCUAGUCCUUGCAUAGUAUUUAGUAA
[1]
  pre-steady-state target cleavage rate: 0.125 ± 0.026
[2]
  pre-steady-state target cleavage rate: 0.0056 ± 0.002

## UCGUCCUACAGCUUGCAUAGUUUUUAGUUA
[1]
  pre-steady-state target cleavage rate: 0.491 ± 0.017
[2]
  pre-steady-state target cleavage rate: 0.0311 ± 0.0085

## UGGACCUACAGCUUGCAUAGUAUUAUCUAA
[1]
  pre-steady-state target cleavage rate: 0.125 ± 0.021
[2]
  pre-steady-state target cleavage rate: 0.00266 ± 0.0026

## UCCUCCUAAGCUUGCAUAGUAUUUAGUUA
[1]
  pre-steady-state target cleavage rate: 0.693 ± 0.03
[2]
  pre-steady-state target cleavage rate: 0.049 ± 0.01

## AGGACCUACAGCUUGCAUAGUAUUCUAGUUA
[1]
  pre-steady-state target cleavage rate: 0.725 ± 0.071
[2]
  pre-steady-state target cleavage rate: 0.0759 ± 0.018

## UCCUGGUACAGCUUGCAUAGUAUUGAGUUA
[1]
  pre-steady-state target cleavage rate: 0.317 ± 0.051
[2]
  pre-steady-state target cleavage rate: 0.0326 ± 0.007

## AGGACCUCAGCUUGCAUAGUAUUUAGUUA
[1]
  pre-steady-state target cleavage rate: 1.34 ± 0.077
[2]
  pre-steady-state target cleavage rate: 0.0984 ± 0.019

## UCCUCCUACACGAUGCAUAGUAUUUAGUUA
[1]
  pre-steady-state target cleavage rate: 0.964 ± 0.036
[2]
  pre-steady-state target cleavage rate: 0.00382 ± 0.0015

## AGGACGUACAGCUUCCAUAGUAUUUAGUUA
[1]
  pre-steady-state target cleavage rate: 0.208 ± 0.024
[2]
  pre-steady-state target cleavage rate: 0.00869 ± 0.0017

## UCCUGGAACAGCUUGCAUAGUAUUUAGAUA
[1]
  pre-steady-state target cleavage rate: 0.406 ± 0.042
[2]
  pre-steady-state target cleavage rate: 0.0172 ± 0.0058

## UCCUCCUACAGCUUGCAUAGUAUUUAGUCA
[1]
  pre-steady-state target cleavage rate: 0.739 ± 0.043
[2]
  pre-steady-state target cleavage rate: 0.0347 ± 0.0077

## UGGACCUACAGCUUGCAUAGUAUUGUAGUUA
[1]
  pre-steady-state target cleavage rate: 0.541 ± 0.041
[2]
  pre-steady-state target cleavage rate: 0.0341 ± 0.007

## UCCUGGAUGAGCUUGCAUAGUAUUUUAGUUA
[1]
  pre-steady-state target cleavage rate: 0.571 ± 0.047
[2]
  pre-steady-state target cleavage rate: 0.0281 ± 0.0094

## UCCUCCUACACCUUGCAUAGUAUUUACUUA
[1]
  pre-steady-state target cleavage rate: 0.31 ± 0.066
[2]
  pre-steady-state target cleavage rate: 0.022 ± 0.005

## AGCACCUACAGCUUGCAUAGUAUAUAGUUA
[1]
  pre-steady-state target cleavage rate: 1.12 ± 0.19
[2]
  pre-steady-state target cleavage rate: 0.0169 ± 0.0063

## UCCUGGAUGUGAUUGCAUAGUAUUUAGUUA
[1]
  pre-steady-state target cleavage rate: 0.0432 ± 0.0065
[2]
  pre-steady-state target cleavage rate: 0.00496 ± 0.002

## UGGACCUACAGCUAGCAUAGUAUUAAGUUA
[1]
  pre-steady-state target cleavage rate: 0.955 ± 0.071
[2]
  pre-steady-state target cleavage rate: 0.01 ± 0.0024

## UCCUGGAUCAGCUUGCAUAGUAUGUUAGUUA
[1]
  pre-steady-state target cleavage rate: 0.588 ± 0.032
[2]
  pre-steady-state target cleavage rate: 0.0104 ± 0.0029

## AGGUCCUACAGCUUGCAUAGUAUUUUCAAA
[1]
  pre-steady-state target cleavage rate: 0.406 ± 0.066
[2]
  pre-steady-state target cleavage rate: 0.00558 ± 0.0037

## UGGACCUACAGCUUGCAAAGUAUUUAGUAA
[1]
  pre-steady-state target cleavage rate: 1.13 ± 0.074
[2]
  pre-steady-state target cleavage rate: 0.0219 ± 0.006
